The text below walks through data of PubChem BioAssay (NCI).

The subject of the test is NCI-H322M lung. The experiment in a line: NCI-60 cell line screen, 48 h.

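Cells were grown in 96-well plates and exposed to each compound for 48 hours at five concentrations; endpoints were interpolated linearly between bracketing concentrations, or set to the highest concentration if not reached. GI50 = concentration required for 50% inhibition of growth. TGI is the concentration that stops growth completely.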 A value given as a limit tells only on which side of the number the result lay.

With `N#Cc1c(NC(=O)c2ccc(C(F)(F)F)cc2C(F)(F)F)sc2c1CCC(=O)C2`, the GI50 was 3.25 µM and the TGI was 14.8 µM.
Taken in the same sequence, the figures for `O=C1NC(=NC23CC4CC(CC(C4)C2)C3)N/C1=C\c1ccc2ncccc2n1` were 0.266 µM and 2.8 µM.
With `C[C@@H](Nc1c(C#N)cnc2ccc(-c3cnc4[nH]ncc4c3)cc12)c1ccccc1`, the GI50 is 1.55 µM and the TGI amounted to 6.25 µM.
Taken in the same sequence, the figures for `CC(=O)Nc1cccc(Nc2nccc(N[C@@H](C)c3ccccc3)n2)c1` were 0.552 µM and greater than 10 µM.
On the same counts, the results for `Cc1ccc(-c2cc(-c3cc4ccccc4nc3Cl)[nH]c(=O)n2)cc1` are 14.3 µM and 28.4 µM.
